# Laboratory results: patent US8252841B2, “Methods of inhibiting bacterial virulence and compounds relating thereto” (priority 2007, dated 2012)
# Assays:
# [1] = biological target: T1, human adrenergic receptors (Homo sapiens, UniProt P07550); details: HEK293 cells, 1 μM
# T1 construct: β2 adrenergic-stimulated cAMP levels in HEK293 cells; endogenous in cells; host or cells: HEK293
# Text: (§1) Structures of the compounds used in this assay are shown below: […]
# [2] = system: human adrenergic receptors; details: HEK293 cells, 1 μM
# Text: as §1
# T1 sequence (P07550 whole entry): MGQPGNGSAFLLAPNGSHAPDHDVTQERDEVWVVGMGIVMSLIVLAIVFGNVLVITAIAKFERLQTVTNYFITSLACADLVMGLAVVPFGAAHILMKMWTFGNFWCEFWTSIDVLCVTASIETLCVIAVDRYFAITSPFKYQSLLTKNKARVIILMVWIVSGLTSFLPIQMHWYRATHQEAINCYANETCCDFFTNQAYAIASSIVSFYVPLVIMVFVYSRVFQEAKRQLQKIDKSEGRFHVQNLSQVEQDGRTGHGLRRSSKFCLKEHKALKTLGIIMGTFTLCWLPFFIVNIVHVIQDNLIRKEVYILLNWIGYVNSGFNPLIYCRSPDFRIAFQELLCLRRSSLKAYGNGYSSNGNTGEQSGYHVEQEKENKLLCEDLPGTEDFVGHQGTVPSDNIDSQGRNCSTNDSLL
compound,measurement,setting,value
"O=S(=O)(Nc1ccccc1)c1ccc(NC(=S)Nc2ccccc2)cc1 [LED209, N-phenyl-4-[[(phenylamino)thioxomethyl]amino]benzenesulfonamide]",Iso (β2 adrenergic)-stimulated cAMP levels,[1],not LED209 reduce
same,basal cAMP levels,[2],not LED209 reduce
same,signaling through human adrenergic receptors,[2],does not interfere with signaling through human adrenergic receptors
